The whole screen tested about 46,000 compounds, of which about 60 (0.1%) were called active. Inconclusive results (about 3%) are left out. The call rests on the fitted dose curve; in most records, active means well fitted inhibition curve with a large enough effect; inconclusive means small, poorly fitted or top-dose-only effect; inactive means no such curve, though single readings can be large or run the other way. This is one part of the list.

Consider 62 molecules from PubChem BioAssay AID1963576 (National Center for Advancing Translational Sciences (NCATS), 2024).

The test is described as follows: Primary qHTS assay for Inhibitors of ovarian cancer metastasis using an organotypic tumor microenvironment (TME) model. Further: nearly all actives have a fitted effect of over 65% in size.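 On activity change, negative = inhibition: plate controls were DMSO wells for no effect and tomatine positive control wells for full effect.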 To be noted: SKOV3ip1-GFP adhesion/invasion on 3D omental model, fluorescence; series mostly up to 45.8 µM; activity change, negative = inhibition: at the top concentration. Put shortly: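 A 3D layer of primary human omental fibroblasts, mesothelial cells, fibronectin and collagen I, grown 48 hr, received SKOV3ip1-GFP cells in serum-free medium plus compounds at 0.36-46 umol/L. After 2 hr RT and 16 hr 37 C, fixed adherent GFP cells were counted; normalized to DMSO and tomatine.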
`CC1CCCCN1C(=O)CSc1nnc(-c2cccc(Cl)c2)o1` (configuration not stated): the “activity change, negative = inhibition” value is inactive: 3.96%. As for `Cc1ccc(Cl)cc1NC(=O)/C(C#N)=C/c1c(C)n(Cc2ccccc2)c2ccccc12`, the “activity change, negative = inhibition” value is inactive: 1.24%. Take `Fc1ccc(-c2csc(-c3nc(-c4ccc(Br)s4)cs3)n2)cc1`: the “activity change, negative = inhibition” value is inactive: 6.52%.

In the case of `COc1ccc(C)cc1N(C)C(=O)c1sc2nc3n(c(=O)c2c1C)CCCCC3`, the call was inactive. In the case of `Cc1cccc(-c2noc(CN(C(=O)c3ccc(C)c(C)c3)C(C)C)n2)c1`, the “activity change, negative = inhibition” value is inactive: -2.46%. With `Cc1ccc(NC(=O)c2ncn(-c3ccccc3)n2)c(Cl)c1`, the “activity change, negative = inhibition” value was inactive: 3.63%. Same read-out and setting: for `Cc1csc2nc(-c3cccc(NC(=O)c4cccc(F)c4)c3)cn12` the value was inactive: -2.99%. In the case of `CCCCN(C)CCNC(=O)Cn1ncc2c3ccccc3n(CCC)c2c1=O`, the outcome was inactive. For the molecule `CCN(CC)c1ccc2cc(-c3nnc(-c4cccc(Cl)c4)o3)c(=O)oc2c1`, the “activity change, negative = inhibition” value was inactive: 4.17%.

On to `Cc1ccc(C(=O)c2oc3ccccc3c2NC(=O)c2nc(S(C)(=O)=O)ncc2Cl)cc1F`, for which the “activity change, negative = inhibition” value is inactive: -14.3%. For `COc1cccc(NC(=O)CSc2nc(-c3ccccc3)nc3c2Cc2cc(Cl)ccc2O3)c1`, the “activity change, negative = inhibition” value is inactive: -5.39%. Consider `CCCCCn1c(=O)[nH]c2cc(C(=O)NCc3ccc(C)cc3)ccc2c1=O`, for which the call was inactive. On the same count and under the same terms, for `CCOc1ccc(CCNC(=O)C2=C(C)C(=O)OC23CCC(C)CC3)cc1OCC` (configuration not stated) the value was “inactive”. For the molecule `O=C1NC(=O)C(=Cc2ccc(-c3ccc(F)cc3O)o2)S1`, the “activity change, negative = inhibition” value was inactive: -1.85%. Regarding `COc1ccccc1NC(=O)N(Cc1ccco1)C1CCN(C(C)=O)CC1`, the “activity change, negative = inhibition” value is inactive: -1.14%. Still for that read-out and setting: as for `O=C(c1nc(-c2ccc(Cl)cc2)n2c1CCCCC2)N1CCN(c2ccc(F)cc2)CC1`, the figure is inactive: -1.24%. Regarding `CCCOc1ccc(OC(=O)c2sc3ncn(Cc4cccc(F)c4)c(=O)c3c2C)cc1`, the “activity change, negative = inhibition” value is inactive: 1.14%. Turning to `CCOc1cc(C#N)c(NC(=O)c2ccc(OC)c(S(=O)(=O)N3CCCC3)c2)cc1OCC`, the “activity change, negative = inhibition” value is inactive: -1.13%. For `O=S(=O)(c1ccccc1)c1nc(-c2ccc(F)cc2)oc1N1CCOCC1`, the “activity change, negative = inhibition” value was inactive: 0.936%. On to `CCOC(=O)c1cccc(NC(=O)CC(c2ccc(F)cc2)N2Cc3ccccc3C2=O)c1` (configuration not stated), for which the “activity change, negative = inhibition” value is inactive: -5.25%. With `CCc1ccc(-c2[nH]c3c(c2-c2sc(C)c(C(=O)OC)c2O)c(=O)n(C)c(=O)n3C)cc1`, the “activity change, negative = inhibition” value was inactive: -8.35%.

Consider `O=C(Cc1ccccc1)Nc1c(C(=O)Nc2ccccc2F)oc2ccccc12`, for which the “activity change, negative = inhibition” value was inactive: 1.45%. As to `COc1cccc(CNC(=O)CCC(=O)N2Cc3cccc(OC)c3Oc3ncccc32)c1OC`, the “activity change, negative = inhibition” value was inactive: -2.84%.

Take `CCCNC(=O)CCc1c(C)nc2nc(-c3cc(OC)cc(OC)c3)nn2c1C`: the “activity change, negative = inhibition” value was inactive: -0.264%. As to `Cc1ccc(OCc2nc3ccccc3n2Cc2ccccc2Cl)cc1`, the call was inactive. Consider `COc1ccc(Br)cc1CNC(=O)C1CCCCN1S(=O)(=O)c1ccc(F)cc1` (configuration not stated), for which the “activity change, negative = inhibition” value is inactive: -25.7%. For `COc1ccc(NC(=O)c2ccc(COc3ccccc3OC)o2)cc1OC`, the “activity change, negative = inhibition” value was inactive: -1.27%. Turning to `CCn1cc(C(=O)NCc2ccccc2)c(=O)c2cc(S(=O)(=O)N3CCCCCC3)ccc21`, the molecule was called inactive.

As for `N=C(N)c1ccc2cc(OC(=O)c3ccc(N=C(N)N)cc3)ccc2c1`, the “activity change, negative = inhibition” value is inactive: -1.92%. With `CC(=O)N1CCCc2cc(S(=O)(=O)N(C)CC(=O)Nc3ccc(Cl)cc3C)ccc21`, the “activity change, negative = inhibition” value is inactive: 0.745%. With `O=C(Cn1ncc2c(=O)oc3ccccc3c21)NCc1ccc(Cl)cc1`, the result was inactive.

For `Cc1ccc(Nc2nc3ccccc3c3nncn23)cc1C`, the “activity change, negative = inhibition” value is inactive: -0.939%. Same read-out and setting: for `Cc1c(NC(=O)c2ccccc2F)cccc1-c1nc2cccnc2s1` the value was inactive: -6.35%; for `COc1ccc(N(C)C(=O)CCS(=O)(=O)c2cccc3nsnc23)cc1`, inactive: 45.5%; for `COc1cccc2c1C(=O)c1c(O)c3c(c(O)c1C2=O)C[C@@](O)(C(=O)CO)C[C@H]3O[C@H]1C[C@H](N)[C@H](O)[C@H](C)O1`, inactive: 5.1%. Regarding `COc1cccc2sc(N(Cc3cccnc3)C(=O)C3COc4ccccc4O3)nc12` (configuration not stated), the result was inactive.

Consider `O=c1c(S(=O)(=O)c2ccccc2)cn(Cc2ccc(F)cc2)c2cc(N3CCCCC3)c(F)cc12`, for which the molecule was called inactive.

With `CCOc1ccc(CCNC(=O)CN(c2ccc(C)cc2)S(=O)(=O)N(C)C)cc1OCC`, the “activity change, negative = inhibition” value is inactive: 4%. Turning to `CCCN(CCC)C(=O)C1CCN(c2ncnc3c2nc2n3CCCCC2)CC1`, the molecule was called inactive. With `COc1ccc(CNC(=O)C(C(C)C)N2Cc3ccccc3C2=O)cc1` (configuration not stated), the “activity change, negative = inhibition” value was inactive: 6.13%. For `Cc1ccc(C)c(NC(=O)c2cc(S(=O)(=O)NCCC3=CCCCC3)ccc2F)c1`, the “activity change, negative = inhibition” value is inactive: -3.72%. Take `COc1ccc2c(c1)CCc1c(C(=O)Nc3c(C)nn(Cc4ccc(C)cc4)c3C)noc1-2`: the “activity change, negative = inhibition” value is inactive: 9.9%. Still for that read-out and setting: for `Cc1ccc(-n2c(=O)c3c(c4cc(C)ccc4n3C)n(CC(=O)Nc3cc(C)cc(C)c3)c2=O)cc1` the value was inactive: 6.41%; for `Cc1ccc(-c2onc(C)c2C)cc1S(=O)(=O)NC1CCCCC1`, inactive: -8.98%; for `COC(=O)c1nnn(CC(=O)Nc2ccc(Br)c(C)c2)c1N`, inactive: -8.11%. Same read-out and setting: for `CC1Cn2cc(C(=O)Nc3cccc(C(F)(F)F)c3)c(=O)c3c(Cl)ccc(c32)O1` (configuration not stated) the value was inactive: -7.71%. Still for that read-out and setting: as for `CCNc1c(NC(=O)c2cc(OCC)c(OCC)c(OCC)c2)c(=O)oc2ccccc12`, the figure is inactive: 9.97%; as for `CCOC(=O)c1c(-c2ccc(OC)cc2)oc2ccc(OCc3ccc(C(=O)OC)cc3)cc12`, inactive: -6.57%. Consider `CCN1CCN(CCCNC(=O)c2ccc3c(c2)sc2nc(-c4ccc(OC)cc4)cn23)CC1`, for which the “activity change, negative = inhibition” value is inactive: -9.9%. As to `COc1cccc(CNC(=O)CCn2cccn2)c1`, the “activity change, negative = inhibition” value is inactive: 1.6%. With `CC(NC(=O)C(=O)Nc1c2c(nn1-c1ccc(F)cc1)CSC2)c1ccccc1` (configuration not stated), the “activity change, negative = inhibition” value is inactive: -1.88%. `O=C(NCCCN1CCN(c2ccccc2F)CC1)c1nnc(Cc2ccc(Cl)cc2Cl)o1`: the outcome was inactive. For the molecule `CCOC(=O)c1c(NC(=O)COc2ccc(F)cc2)sc2c1CCC(C)C2` (configuration not stated), the “activity change, negative = inhibition” value was inactive: -9.36%.

As for `CCC(=O)N1CCc2cc(Br)cc(S(=O)(=O)NCCc3ccccc3)c21`, the “activity change, negative = inhibition” value was inactive: 15.7%. As to `Cc1cc(C)c(Cn2c(C(O)c3ccccc3)nc3ccccc32)c(C)c1` (configuration not stated), the “activity change, negative = inhibition” value is inactive: 4.27%. On the same count and under the same terms, as for `COc1cccc(CNC(=O)CCNS(=O)(=O)c2ccc3c(c2)oc(=O)n3C)c1`, the figure is inactive: -2.77%. For `CCOC(=O)c1[nH]cnc1C(=O)Nc1ccc(F)cc1`, the “activity change, negative = inhibition” value was inactive: 3.82%. As for `CCCCN(C)CCNC(=O)c1nn(-c2ccc(OC)cc2)c(=O)c2c1c1ccccc1n2C`, the “activity change, negative = inhibition” value was inactive: -1.95%. Consider `N#C/C(=C\c1ccc(-c2cc(Cl)ccc2Cl)o1)C(=O)Nc1ccccc1C(=O)O`, for which the “activity change, negative = inhibition” value was inactive: -29.8%. Consider `O=C(CSc1nc2ccccc2n1Cc1ccccc1Cl)NCc1ccccc1`, for which the “activity change, negative = inhibition” value was inactive: -0.432%.

With `CC(C)(C)C(=O)Nc1cccc(C(=O)OCc2cc(=O)n3nc(C4CCCCC4)sc3n2)c1`, the “activity change, negative = inhibition” value was inactive: -3.73%. Consider `CCOc1ccc(NC(=O)CSc2nc(-c3ccc(F)cc3)cc(C(F)(F)F)c2C#N)cc1`, for which the result was inactive.
